Source: the antibiotic and cytotoxicity screens of Wong et al. (2023)
The list shows a part of the results.

Tests used:
HSkMC = human skeletal muscle cells; assay: cytotoxicity call (relative viability < 0.9); conditions: 10 µM
HepG2 = assay: cytotoxicity call (relative viability < 0.9); conditions: 10 µM
S. aureus RN4220 = assay: growth inhibition call (relative growth <= 0.2); conditions: 50 µM

SMILES | cytotoxicity call (HSkMC) | cytotoxicity call (HepG2) | growth inhibition call (S. aureus RN4220)
Cc1ccc(S(=O)(=O)N2CCOCC2)cc1NC(=O)CN1C(=O)CN(C)C1=O | inactive | inactive | inactive
CC1CC(OC(=O)c2ccccc2O)CC(C)(C)C1 (stereo not drawn) | active | active | inactive
C[C@H]1CN([C@@H](C)CO)C(=O)c2cccc(NC(=O)Nc3cccc4ccccc34)c2O[C@@H]1CN(C)C(=O)NC1CCCCC1 | inactive | inactive | inactive
CN(C)C1C(O)=C(C(N)=O)C(=O)C2(O)C(O)=C3C(=O)c4c(O)ccc(Cl)c4C(O)C3CC12.Cl (stereo not drawn) | inactive | inactive | inactive
C[C@@H]1CN([C@@H](C)CO)C(=O)c2cccc(NC(=O)c3nc4ccccc4s3)c2O[C@H]1CN(C)C(=O)Nc1ccc(C(F)(F)F)cc1 | inactive | active | inactive
C[C@@H]1CN([C@@H](C)CO)C(=O)Cc2cc(NS(=O)(=O)c3cn(C)cn3)ccc2O[C@H]1CN(C)C(=O)Nc1ccc(F)cc1 | inactive | inactive | inactive
Cc1ccc(S(=O)(=O)N2C[C@H](O)COC[C@H]3O[C@H](CC(=O)N[C@H]4CCN(Cc5ccccc5)C4)CC[C@@H]32)cc1 | inactive | inactive | inactive
Cc1cc(C(=O)Nc2cccc3c2O[C@H](CN(C)S(C)(=O)=O)[C@@H](C)CN([C@H](C)CO)C3=O)n(C)n1 | inactive | inactive | inactive
CS(=O)(=O)CCNCc1ccc(-c2ccc3ncnc(Nc4ccc(OCc5cccc(F)c5)c(Cl)c4)c3c2)o1 | active | active | inactive
C[C@@H]1CCCCO[C@H](CN(C)Cc2ccc(Cl)c(Cl)c2)[C@@H](C)CN([C@@H](C)CO)C(=O)c2cc(NS(=O)(=O)c3ccc(Cl)cc3)ccc2O1 | active | active | inactive
C[C@@H]1CCCCO[C@H](CN(C)Cc2ccc(Cl)c(Cl)c2)[C@@H](C)CN([C@H](C)CO)C(=O)c2cc(NS(=O)(=O)c3ccc(F)cc3)ccc2O1 | inactive | inactive | inactive
C[C@@H]1CN([C@@H](C)CO)C(=O)Cc2cc(NC(=O)C3CCCCC3)ccc2O[C@H]1CN(C)C(=O)Nc1cccc2ccccc12 | inactive | inactive | inactive
Cc1noc(C)c1NC(=O)N(C)C[C@H]1Oc2ccc(NC(=O)C3CC3)cc2CC(=O)N([C@@H](C)CO)C[C@H]1C | inactive | inactive | inactive
C[C@H]1CN([C@@H](C)CO)S(=O)(=O)c2ccc(C3=CCCCC3)cc2O[C@@H]1CN(C)Cc1cncnc1 | inactive | inactive | inactive
C[C@@H]1CCCCO[C@@H](CN(C)C(=O)Cc2ccccc2)[C@@H](C)CN([C@H](C)CO)C(=O)c2cc(NC(=O)Nc3ccc(F)cc3)ccc2O1 | inactive | inactive | inactive
CN1C(=O)c2cc(NS(C)(=O)=O)ccc2OC[C@H]2O[C@H](CC(=O)N3CCOCC3)CC[C@@H]21 | inactive | inactive | inactive
Cc1ccc(S(=O)(=O)N(C)C[C@@H]2Oc3ccc(NS(=O)(=O)c4c(C)noc4C)cc3CC(=O)N([C@H](C)CO)C[C@H]2C)cc1 | inactive | inactive | inactive
O=C(C1CC1)N1CCCN(C(=O)C2CC2)CC1 | inactive | inactive | inactive
COc1ccc(S(=O)(=O)Nc2ccc3c(c2)C(=O)N([C@@H](C)CO)C[C@@H](C)[C@@H](CN(C)C(=O)c2ccccc2)OCCCC[C@H](C)O3)cc1 | inactive | inactive | inactive

SMILES | cytotoxicity call (HSkMC) | cytotoxicity call (HepG2) | growth inhibition call (S. aureus RN4220)
COc1ccccc1NC(=O)N(C)C[C@H]1Oc2cc(Br)ccc2S(=O)(=O)N([C@@H](C)CO)C[C@@H]1C | inactive | inactive | inactive
C[C@H](CO)N1C[C@H](C)[C@H](CN(C)Cc2ccc(C(=O)O)cc2)Oc2c(NS(C)(=O)=O)cccc2C1=O | inactive | inactive | inactive
CN(CCOP(=O)(O)O)C(=N)N | inactive | inactive | inactive
COc1ccc2c3c([nH]c2c1)[C@@H](CO)N(C[C@]13CN(C1)S(=O)(=O)c1cccs1)C(=O)c1ccccc1 | inactive | inactive | inactive
Cc1noc(C)c1NC(=O)N(C)C[C@H]1OCCCC[C@@H](C)Oc2ccc(NC(=O)Cc3ccccc3)cc2C(=O)N([C@@H](C)CO)C[C@@H]1C | inactive | inactive | inactive
CC(C)NC(=O)Nc1ccc2c(c1)C(=O)N([C@H](C)CO)C[C@H](C)[C@@H](CN(C)S(=O)(=O)c1cn(C)cn1)O2 | inactive | inactive | inactive
C[C@@H]1CN([C@@H](C)CO)C(=O)c2cc(NC(=O)Nc3cccc4ccccc34)ccc2O[C@@H](C)CCCCO[C@H]1CN(C)Cc1ccc(C(F)(F)F)cc1 | inactive | inactive | inactive
CC1=NN2NC(C(F)(F)F)=NN2C(=O)C1 | inactive | inactive | inactive
Nc1ccc(F)cn1 | inactive | inactive | inactive
C[C@H](CO)N1C[C@H](C)[C@@H](CN(C)C(=O)c2cccc(F)c2)Oc2cc(-c3ccncc3)ccc2S1(=O)=O | inactive | inactive | inactive
O=C(C[C@H]1CC[C@@H]2[C@H](COC[C@@H](O)CN2C(=O)C2CC2)O1)NCc1ccncc1 | inactive | inactive | inactive
C[C@H]1CN([C@@H](C)CO)C(=O)Cc2cc(NC(=O)CCCCCC(=O)Nc3ccccc3N)ccc2O[C@@H]1CN(C)C(=O)Nc1cccc2ccccc12 | inactive | inactive | inactive
C=CC[C@@H](CC(=O)N[C@H](CO)Cc1ccccc1)C(=O)N[C@H](C)COC(=O)[C@H](CC=C)CC(=O)OC(C)(C)C | inactive | inactive | inactive
O=C(CS)NCCCCCNC(=O)[C@@H]1C[C@@H]2C(=O)N[C@@H](Cc3ccccc3)C(=O)N2[C@@H]1c1ccc(O)cc1 | inactive | inactive | inactive
C[C@H]1CN([C@@H](C)CO)C(=O)Cc2cc(NC(=O)c3ccncc3)ccc2O[C@@H]1CN(C)S(=O)(=O)c1ccc(Cl)cc1 | inactive | inactive | inactive
C[C@@H]1CN([C@@H](C)CO)C(=O)Cc2cc(NC(=O)Cn3cnnn3)ccc2O[C@H]1CN(C)S(=O)(=O)c1cccs1 | inactive | inactive | inactive
C[C@@H]1CN([C@@H](C)CO)C(=O)c2c(c3ccccc3n2C)-c2ccccc2CO[C@@H]1CN(C)C(=O)CCC(F)(F)F | inactive | inactive | inactive
O=C(CN1CCOCC1)NCC[C@H]1CC[C@H](NC(=O)Cc2ccccn2)[C@@H](CO)O1 | inactive | inactive | inactive
Cc1noc(C)c1S(=O)(=O)Nc1ccc2c(c1)C(=O)N([C@H](C)CO)C[C@H](C)[C@H](CN(C)C(=O)NC1CCCCC1)O2 | inactive | inactive | inactive

SMILES | cytotoxicity call (HSkMC) | cytotoxicity call (HepG2) | growth inhibition call (S. aureus RN4220)
CC(C)CC#Cc1cnc2c(c1)C(=O)N([C@H](C)CO)C[C@H](C)[C@H](CN(C)C(=O)CN1CCOCC1)O2 | inactive | inactive | inactive
C=CCC[C@@H](Cc1ccc(F)cc1)C(=O)OC[C@@H](Cc1c[nH]c2ccccc12)NC(=O)[C@H](CC=C)CC(=O)N(CCO)Cc1ccccc1 | active | active | inactive
COc1ccc(NC(=O)Nc2ccc3c(c2)C(=O)N([C@H](C)CO)C[C@@H](C)[C@@H](CN(C)Cc2ccc(Cl)c(Cl)c2)OCCCC[C@H](C)O3)cc1 | inactive | inactive | inactive
C[C@H](CO)N1C[C@H](C)[C@H](CN(C)Cc2ccc(-c3ccccc3)cc2)Oc2c(NS(=O)(=O)c3ccc(F)cc3)cccc2C1=O | inactive | active | inactive
C[C@H]1CN([C@@H](C)CO)C(=O)c2cc(C#CC3(O)CCCC3)cnc2O[C@H]1CN(C)S(C)(=O)=O | inactive | inactive | inactive
C=CC(=O)N1C[C@H]2CC[C@H](O)[C@H]2C1 | inactive | inactive | inactive
CC12CCC3C(=CCc4cc(O)ccc43)C1CCC2=O (stereo not drawn) | inactive | inactive | inactive
C[C@H]1CN([C@@H](C)CO)C(=O)c2cccc(NC(=O)c3ccncc3)c2O[C@@H]1CN(C)S(=O)(=O)c1cn(C)cn1 | inactive | inactive | inactive
COc1cccc(S(=O)(=O)N[C@@H]2CC[C@@H](CC(=O)NC3CCC3)O[C@@H]2CO)c1 | inactive | inactive | inactive
Cn1c(=O)cc(N2CCCC(N)C2)n(Cc2ccccc2C#N)c1=O.O=C(O)c1ccccc1 (stereo not drawn) | inactive | active | inactive
COc1ccc(CN(C)C[C@@H]2OCCCC[C@@H](C)Oc3ccc(NC(=O)Nc4ccc(C(F)(F)F)cc4)cc3C(=O)N([C@@H](C)CO)C[C@@H]2C)cc1 | active | active | inactive
C[C@H](CO)N1C[C@H](C)[C@H](CN(C)C(=O)Cc2ccncc2)Oc2cc(C#Cc3ccccc3F)ccc2S1(=O)=O | inactive | inactive | inactive
CC(C)N1C[C@H](CN(C)Cc2ccc(Oc3ccccc3)cc2)Oc2c(NC(=O)c3ccncc3)cccc2C1=O | inactive | inactive | inactive
C[C@H](CO)N1C[C@H](C)[C@@H](CN(C)S(=O)(=O)c2ccc(F)cc2)Oc2ccc(NC(=O)Nc3cccc4ccccc34)cc2CC1=O | inactive | inactive | inactive
NS(=O)(=O)c1cc2c(cc1C(F)(F)F)NC(Cc1ccccc1)NS2(=O)=O (stereo not drawn) | inactive | inactive | inactive
CC(=O)O[C@H]1C[C@@]2(C)[C@H]3CC=C4[C@@H](C[C@@H](O[C@H]5O[C@@H](CO)[C@@H](O)[C@@H](O)[C@@H]5O)[C@@H](O)C4(C)C)[C@@]3(C)CC[C@@]2(C)[C@@H]1C(C)(O)C(=O)CCC(C)(C)O (stereo partly drawn) | inactive | inactive | inactive
CN1C(=O)c2cc(NS(C)(=O)=O)ccc2OC[C@@H]2O[C@H](CC(=O)N3CCOCC3)CC[C@H]21 | inactive | inactive | inactive
C[C@@H]1CCCCO[C@H](CN(C)C(=O)c2ccncc2)[C@H](C)CN([C@@H](C)CO)C(=O)c2cc(NS(=O)(=O)c3ccc(Cl)cc3)ccc2O1 | inactive | inactive | inactive
